Values joined by “and” are separate entries in the source; they are usually repeats but may differ in a detail not shown here. Identical values can stand only once.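 The compound was tested at five concentrations on cells cultured in 96-well plates, with a 48-hour exposure period. GI50 marks 50% less growth. Definition used: TGI = concentration required for complete inhibition of growth.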

The subject of the experiment is NCI-H322M lung. The experiment in a line: NCI tumour cell line growth inhibition, 48 h.

In turn, `CCN(CCCl)c1cc(CN(C)C)cc(NC(=O)c2ccc(C(=O)Nc3ccccc3)cc2)c1` displayed a TGI of 7.56 µM. In the case of `N.N.NCCCCCN.O=C([O-])CC(=O)[O-].O=C([O-])CC(=O)[O-].[Pt+4].[Pt+4]`, the GI50 was greater than 100 µM and the TGI was greater than 100 µM. For `COc1c(N2CCN(CN3C(=O)C(=O)c4ccccc43)C(C)C2)c(F)cc2c(=O)c(C(=O)O)cn(C3CC3)c12` (configuration not stated), the GI50 is 27.4 µM and the TGI was found to be 97.5 µM.

As to `COC(=O)C1=C(O)c2cc3c(cc2[C@H](c2cc(OC)c(OC)c(OC)c2)C1)OCO3`, the TGI is greater than 100 µM. Consider `CCCCCC(=C/c1ccccc1)/C=N/N=C(N)N`, for which the GI50 was 1.51 µM and the TGI was determined as 2.9 µM. On to `N[C@@H](Cc1ccc2oc3cc(=O)c4ccccc4c-3nc2c1)C(=O)O`, for which the TGI was greater than 100 µM.

In turn, `CCN(CC)/[N+]([O-])=N/OCC(C)O` (configuration not stated) had a TGI greater than 100 µM. `CCN(CC)CCOc1ccc(Cc2ccccc2)cc1`: the GI50 was 49.6 µM and the TGI was greater than 100 µM. `CCCCn1c(C)c2c(c1C)C(=O)N(CCN1CCN(c3ccccc3Cl)CC1)C2=O` returned a TGI greater than 100 µM. On the same count and under the same terms, in the case of `CCOC(OCC)[C@H](N)[C@@H](O)[C@@H](O)[C@H]1COC(C)(C)O1` it was greater than 100 µM; in that of `COc1cc2c3cc1Oc1c(OC)c(OC)cc4c1C(Cc1ccc(O)c(c1)-c1cc(ccc1OC)CC3N(C)CC2)N(C)CC4` (configuration not stated), greater than 100 µM; in that of `C(/C=C/Nc1ccc(-c2ccccc2)cc1)=Nc1ccc(-c2ccccc2)cc1`, greater than 100 µM. Same read-out and setting: in the case of `COc1cc(OC)cc(C(=O)Cc2c(C(=O)c3ccccc3)c3ccccc3n2C(=O)c2ccccc2)c1` it was greater than 100 µM. Still for that read-out and setting: the same measure for `CCOc1ccc(N=Cc2ccc3ccccc3n2)cc1`: greater than 100 µM. As for `COc1cc(C(=O)N(C(=S)OC23CC4CC(CC(C4)C2)C3)c2ccccc2)cc(OC)c1OC`, the TGI is greater than 100 µM.

As for `O=C1c2ccccc2-c2c1c1ccc([N+](=O)[O-])cc1c(=O)n2CCCn1ccnc1`, the GI50 was 2.28 µM and the TGI is 10.3 µM.

As for `N#Cc1ccc(NC(=O)Nc2nc3ccc(OC(F)(F)F)cc3s2)cc1`, the GI50 is 2.4 µM and the TGI amounted to 11.2 µM. Regarding `CCOC(=O)/C=C(/C(=O)OCC)n1ccc(=O)n(CC(=O)OCC)c1=O`, the TGI worked out at 25 µM. On the same count and under the same terms, in the case of `O=C(CC1SC(=Nc2ccccc2Cl)NC1=O)Nc1ccc(Cl)cc1` (configuration not stated) it was greater than 100 µM.

On to `Cc1ccc(N2C3=C(CC4=C2CC(C)(C)CC4=O)C(=O)CC(C)(C)C3)cc1`, for which the TGI is greater than 100 µM. Still for that read-out and setting: in the case of `COc1cc(C2SCC(=O)N2NC(=O)c2ccc(NC(C)=O)cc2OC)ccc1O` (configuration not stated) it was greater than 100 µM. As to `CCC(=O)Nc1ncnc2ncn(C(=O)CC)c12`, the TGI is greater than 100 µM.

Consider `Nc1ncnc2c1cnn2COCC(O)CO` (configuration not stated), for which the TGI is greater than 100 µM. Still for that read-out and setting: in the case of `COc1ccc2c(c1)C=C(C(C)(C)C)NS2(=O)=O` it was greater than 100 µM. Compound `Cc1cc(=O)n2nc(CSc3n[nH]c(=S)s3)sc2n1` showed a TGI greater than 100 µM.

The compound `COC(=O)c1ccc(/C=C/S(=O)(=O)c2ccccc2)cc1` showed a TGI greater than 100 µM. For the compound `COc1ccc(C(=O)N(Cc2cccnc2)C(=S)N(Cc2cccnc2)C(=O)c2ccc(OC)cc2)cc1`, the TGI was greater than 100 µM.

As to `C[C@@]1(O)CCC[C@H]1n1c(=O)c(C(F)F)cc2cnc(NC3CCN(S(C)(=O)=O)CC3)nc21`, the GI50 was 2.1 µM and the TGI was 8.9 µM. With `COc1ccc(NS(=O)(=O)c2ccc(N=C3C=C(Nc4ccc(S(=O)(=O)Nc5ccc(OC)nn5)cc4)C(=O)c4ccccc43)cc2)nn1`, the TGI amounted to 31.8 µM. `O=c1c(-c2nc3ccccc3[nH]2)cc2ccccc2n1Cc1cn(Cc2ccccc2Cl)nn1`: the GI50 is 2.5 µM and the TGI was 6.94 µM.

With `COc1ccc(-c2c3c(nc4[nH]c(=S)[nH]c(=S)c24)CCCC3)cc1OC`, the TGI is greater than 100 µM.

Regarding `Nc1nc(CC2(O)CCCCC2)cc(-c2ccccc2)n1`, the TGI was greater than 100 µM. As for `CC1=CC2=C(C#N)C(=O)OC2(C)C(c2ccccc2)C1` (configuration not stated), the TGI is greater than 100 µM. Consider `CN1CCN(c2ccc(-c3cccc(CN4CCOCC4)c3)cc2NC(=O)c2c[nH]c(=O)cc2C(F)(F)F)CC1`, for which the GI50 is greater than 100 µM and the TGI was greater than 100 µM. Consider `COC1C(OC(C)=O)CC(=O)OC(C)C/C=C/C=C\C(O)C(C)CC(CC=O)C1OC1OC(C)C(OC2CC(C)(O)C(OC(=O)CC(C)C)C(C)O2)C(N(C)C)C1O` (configuration not stated), for which the TGI is greater than 100 µM. On the same count and under the same terms, the same measure for `C=COC(=O)N1C2CCCC(Cl)(C(C)=O)C1CC2` (configuration not stated): greater than 100 µM; for `CC1(C)/C(=N\Nc2ccc([N+](=O)[O-])cc2[N+](=O)[O-])C2CCC1C2` (configuration not stated): greater than 100 µM.

For `O=C(COC(=O)c1cccc2c(=O)c3ccccc3[nH]c12)Nc1ccc(S(=O)(=O)Nc2ncccn2)cc1`, the TGI was greater than 100 µM. Take `COc1cc2c(cc1OC)-c1ncc3cc(OC)c(OC)cc3c1C2`: the GI50 is greater than 50 µM and the TGI is greater than 50 µM. In turn, `C/C=C(\C)C(=O)N1c2ccccc2CC1c1c(C)[nH]c2ccccc12` (configuration not stated) had a TGI greater than 100 µM. Same read-out and setting: in the case of `N#CC1=C(S)N(C2OC(CO)C(O)C(O)C2O)C(c2ccccc2)=CC1c1cccs1` (configuration not stated) it was 30.8 µM; in that of `CC1(C)CC[C@]2(C(=O)O)CC[C@]3(C)C(=CC[C@@H]4[C@@]5(C)CC[C@H](OC6OC(CO)C(O)C(O)C6O)C(C)(C)[C@@H]5CC[C@]43C)[C@@H]2C1` (some centres not stated), 2.98 µM. For the compound `CCCc1n(Cc2ccc3ccccc3n2)cc[n+]1Cc1ccc2ccccc2c1`, the GI50 was 3.46 µM and the TGI amounted to 15 µM. Turning to `CCCCSC1=N/C(=C\c2ccc(N(C)C)cc2)C(Cl)=N1`, the TGI is greater than 100 µM. The same measure, in the same setting: the same measure for `CC(C)C1=CC23CCC4C(C)(C(=O)O)CCCC4(C)C2CC1C1C(=O)N(c2cccc(N4C(=O)C5C6CC7C8(C)CCCC(C)(C(=O)O)C8CCC7(C=C6C(C)C)C5C4=O)c2)C(=O)C13` (configuration not stated): 3.84 µM; for `CCOC(=O)C(=O)C(/C(=N/N(C)C)C(=O)Nc1ccc(C)cc1C)c1nc2ccccc2[nH]c1=O` (configuration not stated): greater than 100 µM; for `CC1(C)CN=C(Nc2ccc(F)c(Cl)c2)S1`: greater than 100 µM. On to `O=C(N[C@@H](Cc1ccccc1)B(O)O)[C@H](Cc1cccc2ccccc12)NC(=O)N1CCOCC1`, for which the GI50 was 0.138 µM; the TGI was 0.763 µM and 0.469 µM. As for `Fc1cc2nc3n(c2cc1F)C(c1c(Cl)cccc1Cl)SC3` (configuration not stated), the TGI was 35.3 µM.

Take `CC(C)C1NC(=O)[C@H](C)OC(=O)[C@@H](C(C)C)NC(=O)[C@@H](C)OC(=O)C(C(C)C)NC(=O)[C@H](C)OC1=O` (some centres not stated): the TGI is greater than 100 µM. For `COC(=O)/C=C/c1cnc2c(c1)oc(=O)n2C`, the TGI was greater than 100 µM.

`CCOC1=NC(C(F)(F)F)(C(F)(F)F)N=C(N2CCCCC2)O1` yielded a TGI greater than 100 µM. Still for that read-out and setting: in the case of `COC(=O)C1(Cc2ccc(C)cc2)Cc2c(C)cccc2C1=O` (configuration not stated) it was greater than 100 µM; in that of `O=C1c2cc([N+](=O)[O-])sc2C(=O)c2cc([N+](=O)[O-])sc21`, 23 µM. `COc1cc(/C=C2\Cc3ccccc3C2=O)cc(OC)c1OC` registered a TGI greater than 100 µM. Same read-out and setting: in the case of `CCNC1=C(NC(=O)CCl)C(=O)c2ccccc2C1=O` it was 33.1 µM. Consider `CCN(CC)c1ccc(/C=N/NC(=O)c2ccccc2Nc2ccnc(C(F)(F)F)c2)c(O)c1`, for which the GI50 was 0.155 µM and the TGI was greater than 100 µM. Turning to `C/C(=N\Nc1nc2ccccc2o1)c1cc2ccccc2cn1`, the TGI came out at 14.7 µM. On the same count and under the same terms, the same measure for `CCOC(=O)/C=C/c1c[nH]c(=O)[nH]c1=O`: greater than 75 µM. For the compound `COC(=O)CCCNC(=O)C(=O)c1c(O)c(O)c(C(C)C)c2cc(C)c(-c3c(C)cc4c(C(C)C)c(O)c(O)c(C(=O)C(=O)NCCCC(=O)OC)c4c3O)c(O)c12`, the GI50 is 0.704 µM and the TGI is greater than 32.5 µM. On the same counts, the results for `COC1C(O)CC(OC2CC(OC3CC(O[C@@H]4C(=O)c5c(cc6cc(OC7CC(OC8CC(O)C(O)C(C)O8)C(O)C(C)O7)c(C)c(O)c6c5O)CC4[C@H](OC)[C@@H](O)C(C)=O)OC(C)C3O)OC(C)C2O)OC1C` (some centres not stated) are 0.0194 µM and greater than 33.3 µM. For `CCCCCCC/C=C1\CCC(CN(C)C)C1=O` (configuration not stated), the TGI was found to be 33.3 µM.

`C(#C[C@@]12CCC[C@@H]1N(Cc1ccccc1)CO2)c1ccc2c(c1)OCO2` yielded a TGI greater than 100 µM. The same measure, in the same setting: in the case of `COc1ccc2c(c1)c(=O)c1c(NCCCN(C)C)ccc3ncn2c31` it was 18.1 µM; in that of `O=c1oc2ccccc2n1CCCn1c(=O)oc2ccccc21`, greater than 100 µM. The same measure, in the same setting: the same measure for `CN(C(=O)c1ccc(Cl)cc1)C(=S)N1CCN(c2ccccc2)CC1`: greater than 100 µM; for `C=CCN(c1cc(OC)c2c(c1[N+](=O)[O-])C(C)(SC)C(=O)N2)S(C)(=O)=O` (configuration not stated): greater than 100 µM. With `CN1CCN(Cc2ccc(NC(=O)c3cccc(C#Cc4c(N)ncc5ccc(F)cc45)c3)cc2C(F)(F)F)CC1`, the GI50 is 0.969 µM and the TGI stood at 2 µM. In turn, `COC(=O)C1SC[C@H]2C(=O)N(c3ccccc3)C(=O)N12` (some centres not stated) showed a TGI greater than 100 µM. As for `Cc1ccccc1C[P+](c1ccccc1)(c1ccccc1)c1ccccc1`, the GI50 is 7.22 µM and the TGI is greater than 100 µM. In turn, `NC(Cc1ccc(O)cn1)C(=O)O` (configuration not stated) displayed a TGI greater than 100 µM. For the compound `Cc1ccc2c(c1)-c1oc(=O)c(-c3cc4ccccc4oc3=O)cc1C(O)O2` (configuration not stated), the GI50 is 18.5 µM and the TGI stood at 54.1 µM. The compound `Brc1ccc(C2CC3(c4ccccc4)ON=C(c4ccccc4)N3c3ccccc3S2)cc1` (configuration not stated) came in with a TGI greater than 100 µM.

`ClCCc1ccccc1CC1=NCCc2ccccc21` yielded a TGI greater than 100 µM. In turn, `C=CC(C)(C)n1cc(C2=C(O)C(=O)C(c3c(CC=C(C)C)[nH]c4ccccc34)=C(O)C2=O)c2ccccc21` registered a TGI of 12.7 µM. On the same count and under the same terms, the same measure for `COc1ccc2[nH]c3c(C)c4ncccc4c(C)c3c2c1`: greater than 10 µM. As to `NC(Cc1c[nH]c2cc(F)ccc12)C(=O)O` (configuration not stated), the GI50 is 1180 µM and the TGI is greater than 2500 µM. `COc1ccc(S(=O)(=O)Nc2ccc(-c3csc(N4C(=O)/C(=C/c5cccs5)N=C4c4ccccc4)n3)cc2)cc1Cl` yielded a TGI greater than 100 µM. In turn, `COc1c2occc2cc2ccc(=O)oc12` showed a TGI greater than 100 µM. On the same count and under the same terms, in the case of `Cc1nn(C(=O)c2ccncc2)c2c1C(c1ccc([N+](=O)[O-])cc1)SC(N)=N2` (configuration not stated) it was greater than 100 µM.

For the compound `CNC(=O)OCC1=C(COC(=O)NC)C(C)N(c2ccccc2)C1` (configuration not stated), the TGI was greater than 100 µM.

For the compound `Clc1nc(Nc2nc3ccccc3[nH]2)nc(Cl)c1-c1ccccc1`, the TGI was greater than 100 µM. Still for that read-out and setting: the same measure for `CC(C)(C)C1CCC(=O)C(C(O)CC2CC(=O)N(c3ccccc3)C(=O)C2)C1` (configuration not stated): greater than 100 µM.

The record behind these values is PubChem BioAssay (NCI).
